Reference: publication PMC9911399, “Two distinct binding modes provide the RNA-binding protein RbFox with extraordinary sequence specificity”
Residue numbers refer to the chain shown, from its start. The list shows a part of the results.

T1: RBFOX1 RRM (Homo sapiens, UniProt Q9NWB1 109-208)
T1 sequence: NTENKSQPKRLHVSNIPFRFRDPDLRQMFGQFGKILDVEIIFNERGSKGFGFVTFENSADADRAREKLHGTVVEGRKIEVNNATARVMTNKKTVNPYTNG

B1: CCUCUUU (DNA:RNA)
RNA: GGGAGACCGGAAUUCAGAUUGUCCCCUCUUUUUAAAUCCCGUCGUAGCCACCA
DNA 1: CAATCTGAATTCCGGTCTCCC
DNA 2: TGGTGGCTACGACGGGATT
B2: GGCAGCA (DNA:RNA)
RNA: GGGAGACCGGAAUUCAGAUUGUCCGGCAGCAUUAAAUCCCGUCGUAGCCACCA
DNA 1: CAATCTGAATTCCGGTCTCCC
DNA 2: TGGTGGCTACGACGGGATT
B3: GAAUUGC (DNA:RNA)
RNA: B1 RNA with C25G, C26A, U27A, C28U, U30G, U31C
DNA 1: CAATCTGAATTCCGGTCTCCC
DNA 2: TGGTGGCTACGACGGGATT
B4: GUCACGA (DNA:RNA)
RNA: B2 RNA with G26U, G29C, C30G
DNA 1: CAATCTGAATTCCGGTCTCCC
DNA 2: TGGTGGCTACGACGGGATT
B5: AGCCAUC (DNA:RNA)
RNA: B1 RNA with C25A, C26G, U27C, U29A, U31C
DNA 1: CAATCTGAATTCCGGTCTCCC
DNA 2: TGGTGGCTACGACGGGATT
B6: AGCUCUG (DNA:RNA)
RNA: B2 RNA with G25A, A28U, G29C, C30U, A31G
DNA 1: CAATCTGAATTCCGGTCTCCC
DNA 2: TGGTGGCTACGACGGGATT
B7: UAACGAA (DNA:RNA)
RNA: B2 RNA with G25U, G26A, C27A, A28C, C30A
DNA 1: CAATCTGAATTCCGGTCTCCC
DNA 2: TGGTGGCTACGACGGGATT
B8: AUUCCUC (DNA:RNA)
RNA: B1 RNA with C25A, C26U, U29C, U31C
DNA 1: CAATCTGAATTCCGGTCTCCC
DNA 2: TGGTGGCTACGACGGGATT
B9: CCCAUCU (DNA:RNA)
RNA: B1 RNA with U27C, C28A, U30C
DNA 1: CAATCTGAATTCCGGTCTCCC
DNA 2: TGGTGGCTACGACGGGATT
B10: AAUAUUG (DNA:RNA)
RNA: B1 RNA with C25A, C26A, C28A, U31G
DNA 1: CAATCTGAATTCCGGTCTCCC
DNA 2: TGGTGGCTACGACGGGATT
B11: GCCCAGA (DNA:RNA)
RNA: B2 RNA with G26C, A28C, G29A, C30G
DNA 1: CAATCTGAATTCCGGTCTCCC
DNA 2: TGGTGGCTACGACGGGATT
B12: UCGACCA (DNA:RNA)
RNA: B2 RNA with G25U, G26C, C27G, G29C
DNA 1: CAATCTGAATTCCGGTCTCCC
DNA 2: TGGTGGCTACGACGGGATT
B13: CCAAGUA (DNA:RNA)
RNA: B1 RNA with U27A, C28A, U29G, U31A
DNA 1: CAATCTGAATTCCGGTCTCCC
DNA 2: TGGTGGCTACGACGGGATT
B14: UGUCUAU (DNA:RNA)
RNA: B1 RNA with C25U, C26G, U30A
DNA 1: CAATCTGAATTCCGGTCTCCC
DNA 2: TGGTGGCTACGACGGGATT
B15: UCCUAAU (DNA:RNA)
RNA: B1 RNA with C25U, U27C, C28U, U29A, U30A
DNA 1: CAATCTGAATTCCGGTCTCCC
DNA 2: TGGTGGCTACGACGGGATT
B16: GUAGAUG (DNA:RNA)
RNA: B1 RNA with C25G, C26U, U27A, C28G, U29A, U31G
DNA 1: CAATCTGAATTCCGGTCTCCC
DNA 2: TGGTGGCTACGACGGGATT
B17: CCGAUAC (DNA:RNA)
RNA: B1 RNA with U27G, C28A, U30A, U31C
DNA 1: CAATCTGAATTCCGGTCTCCC
DNA 2: TGGTGGCTACGACGGGATT
B18: ACAAGCA (DNA:RNA)
RNA: B2 RNA with G25A, G26C, C27A
DNA 1: CAATCTGAATTCCGGTCTCCC
DNA 2: TGGTGGCTACGACGGGATT
B19: AGCCCUC (DNA:RNA)
RNA: B1 RNA with C25A, C26G, U27C, U29C, U31C
DNA 1: CAATCTGAATTCCGGTCTCCC
DNA 2: TGGTGGCTACGACGGGATT
B20: UGUGCGG (DNA:RNA)
RNA: B1 RNA with C25U, C26G, C28G, U29C, U30G, U31G
DNA 1: CAATCTGAATTCCGGTCTCCC
DNA 2: TGGTGGCTACGACGGGATT
B21: GAUAGCG (DNA:RNA)
RNA: B2 RNA with G26A, C27U, A31G
DNA 1: CAATCTGAATTCCGGTCTCCC
DNA 2: TGGTGGCTACGACGGGATT
B22: GAGAUGA (DNA:RNA)
RNA: B2 RNA with G26A, C27G, G29U, C30G
DNA 1: CAATCTGAATTCCGGTCTCCC
DNA 2: TGGTGGCTACGACGGGATT
B23: ACUCCGA (DNA:RNA)
RNA: B1 RNA with C25A, U29C, U30G, U31A
DNA 1: CAATCTGAATTCCGGTCTCCC
DNA 2: TGGTGGCTACGACGGGATT
B24: AGGGUUA (DNA:RNA)
RNA: B1 RNA with C25A, C26G, U27G, C28G, U31A
DNA 1: CAATCTGAATTCCGGTCTCCC
DNA 2: TGGTGGCTACGACGGGATT
B25: CCAGCGC (DNA:RNA)
RNA: B1 RNA with U27A, C28G, U29C, U30G, U31C
DNA 1: CAATCTGAATTCCGGTCTCCC
DNA 2: TGGTGGCTACGACGGGATT
B26: GGUAGUC (DNA:RNA)
RNA: B2 RNA with C27U, C30U, A31C
DNA 1: CAATCTGAATTCCGGTCTCCC
DNA 2: TGGTGGCTACGACGGGATT
B27: CUUUUAG (DNA:RNA)
RNA: B1 RNA with C26U, C28U, U30A, U31G
DNA 1: CAATCTGAATTCCGGTCTCCC
DNA 2: TGGTGGCTACGACGGGATT
B28: AGGAUUG (DNA:RNA)
RNA: B1 RNA with C25A, C26G, U27G, C28A, U31G
DNA 1: CAATCTGAATTCCGGTCTCCC
DNA 2: TGGTGGCTACGACGGGATT
B29: GUGUUCC (DNA:RNA)
RNA: B2 RNA with G26U, C27G, A28U, G29U, A31C
DNA 1: CAATCTGAATTCCGGTCTCCC
DNA 2: TGGTGGCTACGACGGGATT
B30: GGUUAAA (DNA:RNA)
RNA: B2 RNA with C27U, A28U, G29A, C30A
DNA 1: CAATCTGAATTCCGGTCTCCC
DNA 2: TGGTGGCTACGACGGGATT
B31: GUUAGUG (DNA:RNA)
RNA: B2 RNA with G26U, C27U, C30U, A31G
DNA 1: CAATCTGAATTCCGGTCTCCC
DNA 2: TGGTGGCTACGACGGGATT

Biological target: T1, RBFOX1 RRM
Test: EMSA; HiTS-Eq, 1 nM pool, 10 min; buffer printed only for the single-RNA assays: 10 mM Tris pH 7.5, 150 mM NaCl, 3.4 mM EDTA, 0.001% NP-40, 30 C
Conditions: tags: His6 N-terminal (pET28a); label: 5' 32P
In short: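 Purified wild-type or mutant RbFox RRM at increasing concentrations was equilibrated with 1 nM of 5′-radiolabelled RNA carrying 7 randomized nucleotides for 10 min in 50 µL. Unbound RNA was separated by 8% native PAGE and sequenced. Relative association constants came from read-count changes of each RNA species compared with the control reaction, normalised to the cognate motif.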

First: B1
Second: B2
The binding signal of the first is lower: 0.00522 KA relative to UGCAUGU for the first, 0.0104 KA relative to UGCAUGU for the second.

First: B3
Second: B4
The binding signal of the first is lower: 0.0117 KA relative to UGCAUGU for the first, 0.0123 KA relative to UGCAUGU for the second.

Compared with B5, B6 is higher in binding signal: 0.0036 KA relative to UGCAUGU for the first, 0.0163 KA relative to UGCAUGU for the second.

First: B7
Second: B8
The binding signal of the first is higher: 0.00683 KA relative to UGCAUGU for the first, 0.00325 KA relative to UGCAUGU for the second.

Compared with B9, B10 is higher in binding signal: 0.000718 KA relative to UGCAUGU for the first, 0.00294 KA relative to UGCAUGU for the second.

First: B11
Second: B12
The binding signal of the first is higher: 0.0133 KA relative to UGCAUGU for the first, 0.00125 KA relative to UGCAUGU for the second.

First: B13
Second: B14
The binding signal of the first is lower: 0.00123 KA relative to UGCAUGU for the first, 0.0104 KA relative to UGCAUGU for the second.

Compared with B15, B16 is higher in binding signal: 0.00217 KA relative to UGCAUGU for the first, 0.0126 KA relative to UGCAUGU for the second.

First: B17
Second: B18
The binding signal of the first is higher: 0.00577 KA relative to UGCAUGU for the first, 0.00399 KA relative to UGCAUGU for the second.

First: B19
Second: B20
The binding signal of the first is lower: 0.00539 KA relative to UGCAUGU for the first, 0.0217 KA relative to UGCAUGU for the second.

Compared with B21, B22 is higher in binding signal: 0.0141 KA relative to UGCAUGU for the first, 0.0163 KA relative to UGCAUGU for the second.

First: B23
Second: B24
The binding signal of the first is lower: 0.00366 KA relative to UGCAUGU for the first, 0.0155 KA relative to UGCAUGU for the second.

First: B25
Second: B26
The binding signal of the first is lower: 0.00486 KA relative to UGCAUGU for the first, 0.0157 KA relative to UGCAUGU for the second.

Compared with B27, B28 is higher in binding signal: 0.0106 KA relative to UGCAUGU for the first, 0.0293 KA relative to UGCAUGU for the second.

Compared with B29, B30 is lower in binding signal: 0.0195 KA relative to UGCAUGU for the first, 0.00176 KA relative to UGCAUGU for the second.

For B31, the binding signal was 0.0142 KA relative to UGCAUGU.
